Laboratory results published in patent publication US11041000B2, “Peptide inhibitors of interleukin-23 receptor and their use to treat inflammatory diseases” (priority 2019, dated 2021).
pIC50: −log10 of the molar value. Part of at least one peptide drawing is inferred or uncertain, most often the ends. For at least one compound, name, drawing or mass did not settle the structure. Bridge positions count the residues as written; N and C are the ends. Square brackets hold non-standard residues; d marks the D form. Peptide text beside a SMILES is read from it. Trp(7-Me) = Cc1cccc2c(C[C@H](N)C(=O)O)c[nH]c12; 2Nal = N[C@@H](Cc1ccc2ccccc2c1)C(=O)O; d2Nal = N[C@H](Cc1ccc2ccccc2c1)C(=O)O; AEF = NCCOc1ccc(C[C@H](N)C(=O)O)cc1; Cit = NC(=O)NCCC[C@H](N)C(=O)O; Pen = CC(C)(S)[C@H](N)C(=O)O; αMeK = C[C@](N)(CCCCN)C(=O)O; Dab = NCC[C@H](N)C(=O)O; Aib = CC(C)(N)C(=O)O

Molecular target: IL-23R-expressing DB cells (Homo sapiens, UniProt Q5VWK5)
Test: DB cells IL23R pSTAT3 cell assay (pStat3HTRF)
Assay type: cell-based
Settings: DB cells stimulated with IL-23 0.5 nM, 30 minutes, phospho-STAT3 in cell lysates; read-out: pStat3 HTRF
Description: Human ELISA indicates the IL23-IL23R competitive binding assay described below, Rat ELISA indicates the rat IL-23R competitive binding ELISA assay described below, and pStat3HTRF indicates the DB cells IL-23R pSTAT3 cell assay described below. The peptides depicted in Table E1 are cyclized via a disulfide bridge formed between two Pen residues in these peptides. The peptides depicted in Table E2 are cyclized via a thioether bond between the indicated amino acid residues. Table E2 provides an illustrative structure depicting thioether cyclization, which is indicated in the table by the term “cyclo,” with the cyclic region bracketed immediately following the term “cyclo.” For certain peptides, the residue Abu is present where indicated, whereas in other embodiments, e.g., those related to the non-cyclized form, the Abu may be referred to as a hSer(Cl) or homoSer residue. The petpides depicted in Table E3 are cyclized via a disulfide bridge formed between two Pen residues or a thioether bond between Abu and Cys.
IL-23 plays a central role in supporting and maintaining Th17 differentiation in vivo. This process is thought to be mediated primarily through the Signal Transducer and Activator of Transcription 3 (STAT3), with phosphorylation of STAT3 (to yield pSTAT3) leading to upregulation of RORC and pro-inflammatory IL-17. This cell assay examines the levels of pSTAT3 in IL-23R-expressing DB cells when stimulated with IL-23 in the presence of test compounds. Serial dilutions of test peptides and IL-23 (Humanzyme #HZ-1261) at a final concentration of 0.5 nM, were added to each well in a 96 well tissue culture plate (Corning #CLS3894). DB cells (ATCC #CRL-2289), cultured in RPMI-1640 medium (Thermo Scientific #11875093) supplemented with 10% FBS, were added at 5×10E5 cells/well and incubated for 30 minutes at 37° C. in a 5% CO2 humidified incubator. Changes in phospho-STAT3 levels in the cell lysates were detected using the Cisbio HTRF pSTAT3 (Tyr705) Cellular Assay Kit (Cisbio #62AT3PEH), according to manufacturer's Two Plate Assay protocol.

IL-23R-expressing DB cells, sequence (Q5VWK5 24-629 limits assumed): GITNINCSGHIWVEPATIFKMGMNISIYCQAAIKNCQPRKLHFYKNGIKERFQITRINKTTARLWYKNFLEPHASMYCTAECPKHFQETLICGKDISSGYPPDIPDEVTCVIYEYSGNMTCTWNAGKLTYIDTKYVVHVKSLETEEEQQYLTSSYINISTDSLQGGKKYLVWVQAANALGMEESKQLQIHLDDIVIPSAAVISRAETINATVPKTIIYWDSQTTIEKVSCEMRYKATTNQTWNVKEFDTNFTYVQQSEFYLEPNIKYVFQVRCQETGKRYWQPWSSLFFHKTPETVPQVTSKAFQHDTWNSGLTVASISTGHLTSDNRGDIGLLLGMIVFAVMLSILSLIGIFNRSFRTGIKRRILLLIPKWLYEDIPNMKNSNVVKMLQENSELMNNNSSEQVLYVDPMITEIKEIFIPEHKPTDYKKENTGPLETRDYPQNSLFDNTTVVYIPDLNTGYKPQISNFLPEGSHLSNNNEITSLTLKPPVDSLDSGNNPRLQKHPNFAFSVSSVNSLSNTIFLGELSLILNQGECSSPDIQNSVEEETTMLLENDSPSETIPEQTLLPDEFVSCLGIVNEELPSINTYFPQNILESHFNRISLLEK

| Compound | pIC50 |
| --- | --- |
| CC(=O)NCCCC[C@@H]1NC(=O)[C@H](Cc2c[nH]c3c(C)cccc23)NC(=O)[C@H]([C@@H](C)O)NC(=O)[C@H](CC(C)C)NC(=O)[C@@H](NC(C)=O)C(C)(C)SSC(C)(C)[C@@H](C(=O)N[C@@H](Cc2ccc(OCCN)cc2)C(=O)N[C@@H](Cc2ccc3ccccc3c2)C(=O)N[C@@](C)(CCCCN)C(=O)N[C@@H](CCCCNC(C)=O)C(=O)N[C@@H](CC(N)=O)C(=O)N[C@H](CC(C)C)C(N)=O)NC1=O [compound 332] (Ac-[Pen]LT[Trp(7-Me)]K(Ac)[Pen][AEF][2Nal][αMeK]K(Ac)N[dL]-NH2; disulfide 1-6) | 8.97 |
| CC(=O)NCCCC[C@@H]1NC(=O)[C@H](Cc2c[nH]c3c(C)cccc23)NC(=O)[C@H]([C@@H](C)O)NC(=O)[C@H](CC(N)=O)NC(=O)[C@@H](NC(C)=O)C(C)(C)SSC(C)(C)[C@@H](C(=O)N[C@@H](Cc2ccc(OCCN)cc2)C(=O)N[C@@H](Cc2ccc3ccccc3c2)C(=O)N[C@@](C)(CCCCN)C(=O)N[C@@H](CCCCNC(C)=O)C(=O)N[C@@H](CC(N)=O)C(=O)N[C@@H](CCCNC(N)=O)C(N)=O)NC1=O [compound 249] | 9.19 |
| CC(=O)NCCCC[C@H](NC(=O)[C@](C)(CCCCN)NC(=O)[C@H](Cc1ccc2ccccc2c1)NC(=O)[C@H](Cc1ccc(OCCN)cc1)NC(=O)[C@H]1NC(=O)[C@H](CCC(N)=O)NC(=O)[C@H](Cc2c[nH]c3cccc(C)c23)NC(=O)[C@H]([C@@H](C)O)NC(=O)[C@H](CC(N)=O)NC(=O)[C@@H](NC(C)=O)C(C)(C)SSC1(C)C)C(=O)N[C@@H](CC(N)=O)C(=O)NCCC(N)=O [compound 231] | 8.23 |
| CC(=O)NCCCC[C@@H]1NC(=O)[C@H](Cc2c[nH]c3c(C)cccc23)NC(=O)[C@H]([C@@H](C)O)NC(=O)[C@H](CCNC(C)=O)NC(=O)[C@@H](NC(C)=O)C(C)(C)SSC(C)(C)[C@@H](C(=O)N[C@@H](Cc2ccc(OCCN)cc2)C(=O)N[C@@H](Cc2ccc3ccccc3c2)C(=O)N[C@@](C)(CCCCN)C(=O)N[C@@H](CCCCNC(C)=O)C(=O)N[C@@H](CC(N)=O)C(=O)N[C@H](CC(C)C)C(N)=O)NC1=O [compound 335] (Ac-[Pen][Dab](Ac)T[Trp(7-Me)]K(Ac)[Pen][AEF][2Nal][αMeK]K(Ac)N[dL]-NH2; disulfide 1-6) | 9.25 |
| CC(=O)NCCCC[C@H](NC(=O)[C@](C)(CCCCN)NC(=O)[C@H](Cc1ccc2ccccc2c1)NC(=O)[C@H](Cc1ccc(OCCN)cc1)NC(=O)[C@H]1NC(=O)[C@H](CCCNC(N)=O)NC(=O)[C@H](Cc2c[nH]c3c(C)cccc23)NC(=O)[C@H]([C@@H](C)O)NC(=O)[C@H](CC(N)=O)NC(=O)[C@@H](NC(C)=O)C(C)(C)SSC1(C)C)C(=O)N[C@@H](CC(N)=O)C(=O)N[C@@H](CO)C(N)=O [compound 260] (Ac-[Pen]NT[Trp(7-Me)][Cit][Pen][AEF][2Nal][αMeK]K(Ac)NS-NH2; disulfide 1-6) | 9.16 |
| CC(=O)NCCCC[C@@H]1NC(=O)[C@H](Cc2c[nH]c3c(C)cccc23)NC(=O)[C@H]([C@@H](C)O)NC(=O)[C@H](CC(N)=O)NC(=O)[C@@H](NC(C)=O)C(C)(C)SSC(C)(C)[C@@H](C(=O)N[C@@H](Cc2ccc(OCCN)cc2)C(=O)N[C@@H](Cc2ccc3ccccc3c2)C(=O)N[C@@](C)(CCCCN)C(=O)N[C@@H](CCCCNC(C)=O)C(=O)N[C@@H](CC(N)=O)C(=O)N(C)[C@@H](CCCNC(=N)N)C(N)=O)NC1=O [compound 246] | 8.32 |
| CC(=O)NCCCC[C@@H]1NC(=O)[C@H](Cc2c[nH]c3c(C)cccc23)NC(=O)[C@H]([C@@H](C)O)NC(=O)[C@H](CC(N)=O)NC(=O)[C@@H](NC(C)=O)C(C)(C)SSC(C)(C)[C@@H](C(=O)N[C@@H](Cc2ccc(OCCN)cc2)C(=O)N[C@@H](Cc2ccc3ccccc3c2)C(=O)N[C@@](C)(CCCCN)C(=O)N[C@@H](CCCCNC(C)=O)C(=O)N[C@@H](CO)C(=O)NCCC(N)=O)NC1=O [compound 271] | 8.72 |
| CC(=O)NCCCC[C@@H]1NC(=O)[C@H](Cc2c[nH]c3c(C)cccc23)NC(=O)[C@H]([C@@H](C)O)NC(=O)[C@H](CC(N)=O)NC(=O)[C@@H](NC(C)=O)C(C)(C)SSC(C)(C)[C@@H](C(=O)N[C@@H](Cc2ccc(OCCN)cc2)C(=O)N[C@@H](Cc2ccc3ccccc3c2)C(=O)N[C@@](C)(CCCCN)C(=O)N[C@@H](CCCCNC(C)=O)C(=O)N[C@@H](CC(N)=O)C(=O)N[C@@H](CC(C)C)C(N)=O)NC1=O [compound 244] | 8.84 |
| CC(=O)NCCCC[C@@H]1NC(=O)[C@H](Cc2c[nH]c3c(C)cccc23)NC(=O)[C@H]([C@@H](C)O)NC(=O)[C@H](CCCNC(=N)N)NC(=O)[C@@H](NC(C)=O)C(C)(C)SSC(C)(C)[C@@H](C(=O)N[C@@H](Cc2ccc(OCCN)cc2)C(=O)N[C@@H](Cc2ccc3ccccc3c2)C(=O)N[C@@](C)(CCCCN)C(=O)N[C@@H](CCCCNC(C)=O)C(=O)N[C@@H](CC(N)=O)C(=O)N[C@H](CC(C)C)C(N)=O)NC1=O [compound 336] (Ac-[Pen]RT[Trp(7-Me)]K(Ac)[Pen][AEF][2Nal][αMeK]K(Ac)N[dL]-NH2; disulfide 1-6) | 8.83 |
| COc1cccc2c(C[C@@H]3NC(=O)[C@H]([C@@H](C)O)NC(=O)[C@H](CC(N)=O)NC(=O)[C@@H](NC(C)=O)C(C)(C)SSC(C)(C)[C@@H](C(=O)N[C@@H](Cc4ccc(OCCN)cc4)C(=O)N[C@@H](Cc4ccc5ccccc5c4)C(=O)N[C@@](C)(CCCCN)C(=O)N[C@@H](CCCCNC(C)=O)C(=O)N[C@@H](CC(N)=O)C(=O)N[C@H](CC(C)C)C(N)=O)NC(=O)[C@H](CCCCNC(C)=O)NC3=O)c[nH]c12 [compound 288] | 8.83 |
| CC(=O)NCCCC[C@H](NC(=O)[C@](C)(CCCCN)NC(=O)[C@H](Cc1ccc2ccccc2c1)NC(=O)[C@H](Cc1ccc(OCCN)cc1)NC(=O)[C@H]1NC(=O)[C@H](CCCNC(N)=O)NC(=O)[C@H](Cc2c[nH]c3c(C)cccc23)NC(=O)[C@H]([C@@H](C)O)NC(=O)[C@H](CC(N)=O)NC(=O)[C@@H](NC(C)=O)C(C)(C)SSC1(C)C)C(=O)N[C@@H](CC(N)=O)C(=O)NC(C)(C)C(=O)NCC(N)=O [compound 341] (Ac-[Pen]NT[Trp(7-Me)][Cit][Pen][AEF][2Nal][αMeK]K(Ac)N[Aib]G-NH2; disulfide 1-6) | 9.03 |
| CC(=O)NCCCC[C@@H]1NC(=O)[C@H](Cc2c[nH]c3c(C)cccc23)NC(=O)[C@H]([C@@H](C)O)NC(=O)[C@H](CC(N)=O)NC(=O)[C@@H](NC(C)=O)C(C)(C)SSC(C)(C)[C@@H](C(=O)N[C@@H](Cc2ccc(OCCN)cc2)C(=O)N[C@@H](Cc2ccc3ccccc3c2)C(=O)N[C@@](C)(CCCCN)C(=O)N[C@@H](CCCCNC(=O)C2CCCCC2)C(=O)N[C@@H](CC(N)=O)C(=O)N[C@H](CC(C)C)C(N)=O)NC1=O [compound 357] | 9.48 |
| CCCCCCCC(=O)NCCCC[C@@H]1NC(=O)[C@H](Cc2c[nH]c3c(C)cccc23)NC(=O)[C@H]([C@@H](C)O)NC(=O)[C@H](CC(N)=O)NC(=O)[C@@H](NC(C)=O)C(C)(C)SSC(C)(C)[C@@H](C(=O)N[C@@H](Cc2ccc(OCCN)cc2)C(=O)N[C@@H](Cc2ccc3ccccc3c2)C(=O)N[C@@](C)(CCCCN)C(=O)N[C@@H](CCCCNC(C)=O)C(=O)N[C@@H](CC(N)=O)C(=O)N[C@H](CC(C)C)C(N)=O)NC1=O [compound 317] | 7.89 |
| CC(=O)NCCCC[C@H](NC(=O)[C@](C)(CCCCN)NC(=O)[C@H](Cc1ccc2ccccc2c1)NC(=O)[C@H](Cc1ccc(OCCN)cc1)NC(=O)[C@H]1NC(=O)[C@H](CCCNC(N)=O)NC(=O)[C@H](Cc2c[nH]c3c(C)cccc23)NC(=O)[C@H]([C@@H](C)O)NC(=O)[C@H](CC(N)=O)NC(=O)[C@@H](NC(C)=O)C(C)(C)SSC1(C)C)C(=O)N[C@@H](CC(N)=O)C(=O)NC(C)(C)C(=O)N[C@H](Cc1ccc2ccccc2c1)C(N)=O [compound 348] (Ac-[Pen]NT[Trp(7-Me)][Cit][Pen][AEF][2Nal][αMeK]K(Ac)N[Aib][d2Nal]-NH2; disulfide 1-6) | 8.30 |
| CC(=O)NCCCC[C@@H]1NC(=O)[C@H](Cc2c[nH]c3c(C)cccc23)NC(=O)[C@H]([C@@H](C)O)NC(=O)[C@H](CC(N)=O)NC(=O)[C@@H](NC(C)=O)C(C)(C)SSC(C)(C)[C@@H](C(=O)N[C@@H](Cc2ccc(OCCN)cc2)C(=O)N[C@@H](Cc2ccc3ccccc3c2)C(=O)N[C@@](C)(CCCCN)C(=O)N[C@@H](CCCCNC(C)=O)C(=O)N[C@@H](CC(N)=O)C(=O)N[C@@H](CCCNC(=N)N)C(N)=O)NC1=O [compound 243] | 8.73 |
| CC(=O)NCCCC[C@@H]1NC(=O)[C@H](Cc2c[nH]c3c(C)cccc23)NC(=O)[C@H]([C@@H](C)O)NC(=O)[C@@H]2CCCN2C(=O)[C@@H](NC(C)=O)C(C)(C)SSC(C)(C)[C@@H](C(=O)N[C@@H](Cc2ccc(OCCN)cc2)C(=O)N[C@@H](Cc2ccc3ccccc3c2)C(=O)N[C@@](C)(CCCCN)C(=O)N[C@@H](CCCCNC(C)=O)C(=O)N[C@@H](CC(N)=O)C(=O)N[C@H](CC(C)C)C(N)=O)NC1=O [compound 333] (Ac-[Pen]PT[Trp(7-Me)]K(Ac)[Pen][AEF][2Nal][αMeK]K(Ac)N[dL]-NH2; disulfide 1-6) | 8.03 |
